# Measurements reported in PubChem BioAssay (Tox21).
# Values joined by “and” are separate entries in the source; they are usually repeats but may differ in a detail not shown here. Equal values may be shown once. This list was built around the results that the source calls inconclusive (neither active nor inactive); the mix of calls is not that of the screen. For some of these results: Potencies of inconclusive entries are doubtful fits and often do not repeat. More than one record can exist for a structure, and the calls need not agree. Active and inactive are the calls of the source. Unless noted, calls come from the whole dose curve; as a rule, active = well fitted curve in the direction sought with a large enough effect in the repeat runs; inconclusive = weak or mixed curves; inactive = no such curve, though single readings can be large; an effect the other way counts as inactive or inconclusive.
# Columns and labels:
# [1] = target: Androgen receptor (Homo sapiens) (UniProt P10275); test: qHTS assay to identify small molecule antagonists of the androgen receptor (AR) signaling pathway using the MDA cell line in the presence of 0.5 nM R1881 (AID 1259243); note: nearly all actives have a fitted effect of over 50% in size; for activity, negative = inhibition: % is set by controls: 0 for no effect and ±100 for the full control effect
# In short: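 Inhibition of R1881 (0.5 nM final) induced reporter signal was measured in human MDA-kb2 cells; note the MMTV promoter also responds to GR. Exposure lasted 16 hr at 37C.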
# [2] = qHTS assay to identify small molecule antagonists of the sonic hedgehog signaling (Shh) pathway (AID 1259369; calls by dose curve; note: nearly all actives have a fitted effect of over 45% in size)
# In short: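 Screening used 3T3Gli1-Luc cells at 2,000 per well, compounds delivered in DMSO, and conditioned medium as agonist stimulus; plates incubated 24hr at 37 C and 5% CO2 before a 30min luciferase step.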
# [3] = target: Estrogen receptor beta (Homo sapiens) (UniProt Q92731); test: qHTS assay to identify small molecule antagonists of the estrogen receptor beta (ER-beta) signaling pathway (AID 1259378; active = well fitted inhibition curve with a large enough effect in the signal ratio in the repeat runs, not every such curve was filed as active; inconclusive = weak or mixed curves, or effect the other way; inactive = no such curve, though single readings can be large or run the other way; the % refers to the signal ratio; for activity, negative = inhibition: % is set by controls: 0 for no effect and ±100 for the full control effect); details: ER-beta-UAS-bla HEK293T, beta-lactamase FRET ratio, 16 h; activity, negative = inhibition: at 92.4 µM (top of the series) unless noted
# In short: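 ER-beta-UAS-bla HEK293T (GripTite) cells in 2% charcoal-stripped FBS medium were preincubated 6 hr at 37C, dosed with compound, then stimulated with 1 nM E2 (final) for 16 hr; beta-lactamase reporter read by B/G FRET fluorescence after 2 hr substrate loading.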
# [4] = qHTS assay to identify small molecule agonists of the estrogen receptor beta (ER-beta) signaling pathway - cell viability counter screen (AID 1259380); note: nearly all actives have a fitted effect of over 30% in size
# In short: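 Viability of ER-beta-UAS-bla HEK293T cells was determined by CellTiter-Glo luminescence following 16 hr treatment with test compounds at 37C.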
# [5] = qHTS assay to identify small molecule antagonists of the estrogen receptor beta (ER-beta) signaling pathway - cell viability counter screen (AID 1259382); note: nearly all actives have a fitted effect of over 55% in size
# In short: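 Tox21 10K library tested in qHTS format on ER-beta-bla HEK293T cells stimulated with 1nM E2; 16 hr treatment at 37C. Same-well CellTiter-Glo luminescence served as the cell viability measure.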
# [6] = qHTS assay to identify small molecule antagonists of the androgen receptor (AR) signaling pathway using the MDA cell line in the presence of 0.5 nM R1881 - cell viability counter screen (AID 1259242); note: nearly all actives have a fitted effect of over 45% in size
# In short: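 Fluorescence from CellTiter-Fluor, which reports protease activity of live cells, was read 30 min after reagent addition to MDA-kb2 cells that had been incubated 16 hr with compound and 0.5 nM R1881.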
# [7] = target: Estrogen receptor beta (Homo sapiens) (UniProt Q92731); test: qHTS assay to identify small molecule agonists of the estrogen receptor beta (ER-beta) signaling pathway (AID 1259377; active = well fitted activation curve with a large enough effect in the signal ratio in the repeat runs, not every such curve was filed as active; inconclusive = weak or mixed curves, or effect the other way; the % refers to the signal ratio; for activation: % is set by controls: 0 for no effect and ±100 for the full control effect); details: ER-beta-UAS-bla HEK293T, beta-lactamase FRET ratio, 16 h; activation: at 92.4 µM (top of the series) unless noted
# In short: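 ER-beta-UAS-bla HEK293T (GripTite) cells carrying a UAS-driven beta-lactamase reporter, in medium with 2% charcoal-stripped FBS, were exposed to compounds for 16 hr at 37C; LiveBLAzer B/G FRET substrate was then added and fluorescence read after 2 hours at room temperature.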
# [8] = target: Androgen receptor (Homo sapiens) (UniProt P10275); test: qHTS assay to identify small molecule agonists of the androgen receptor (AR) signaling pathway in the presence of an antagonist (AID 1259381; calls by dose curve; note: nearly all actives have a fitted effect of over 15% in size); details: MDA-kb2 MMTV-luciferase, AR agonist + nilutamide, 16 h; activation: at 42.5 µM (top of the series)
# In short: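 Here, 15-concentration compound series were pin-transferred onto MDA-kb2 MMTV-luciferase cells already dosed with nilutamide (3.0uM final). After 16hr at 37C, ONE-Glo was added and luminescence read 30min later at room temperature.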
# [9] = qHTS assay to identify small molecule agonists of the androgen receptor (AR) signaling pathway in the presence of an antagonist - cell viability counter screen (AID 1259379); note: nearly all actives have a fitted effect of over 25% in size
# In short: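 In MDA-kb2 cells (human breast carcinoma, MMTV-luciferase), compounds at 15 concentrations plus 3.0uM nilutamide; 16 hr, 37C, 0% CO2; CellTiter-Fluor fluorescence read for viability.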
# [10] = target: Estrogen receptor (Homo sapiens) (UniProt P03372); test: qHTS assay to identify small molecule antagonists of the estrogen receptor alpha (ER-alpha) signaling pathway using the BG1 cell line in the presence of 0.1 nM 17-beta-estradiol (AID 1259244); note: nearly all actives have a fitted effect of over 50% in size
# In short: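 Quantitative high-throughput screen in VM7Luc4E2 cells: compound plus 0.1 nM E2 (final), 22 h, 37C, 5% CO2; ONE-Glo added, 30 min room temperature, luminescence measured.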
# [11] = qHTS assay to identify small molecule HDAC inhibitors (AID 1259364); note: nearly all actives have a fitted effect of over 45% in size
# In short: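 Endogenous HDAC class I/II activity was measured in wild-type HCT-116 cells by HDAC-Glo luminescence after 2 h compound treatment.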
# [12] = qHTS assay to identify small molecule antagonists of the sonic hedgehog signaling (Shh) pathway - cell viability counter screen (AID 1259367); note: nearly all actives have a fitted effect of over 55% in size
# In short: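 After a 4 hr settling period, 3T3 Gli1-Luc cells were treated with DMSO-dissolved chemicals and conditioned medium, kept 24 hr at 37C in 5% CO2, and assayed for viability by CellTiter-Fluor fluorescence following 1 hr reagent incubation.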
# [13] = qHTS assay to identify small molecule phospholipidosis (PLD) inducers (AID 1259344; active = well fitted curve in the direction sought with a large enough effect; inconclusive = small, poorly fitted or top-dose-only effect, or another doubt; inactive = no such curve, though single readings can be large; an effect the other way counts as inactive or inconclusive)
# In short: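 HepG2 cells grown on collagen I take up LipidTOX Red while exposed to compound for 24 h; after fixation they are imaged at 20x and pit metrics are extracted.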
# [14] = target: Estrogen receptor (Homo sapiens) (UniProt P03372); test: qHTS assay to identify small molecule agonists of the estrogen receptor alpha (ER-alpha) signaling pathway in the presence of an antagonist (AID 1259383; calls by dose curve; note: nearly all actives have a fitted effect of over 15% in size)
# In short: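 In VM7Luc4E2 cells, 4,000 per well, compounds at 15 concentrations were co-incubated 22hr at 37C with 10.0nM final ICI-182,780. Luminescence from the stably transfected 4×ERE-luciferase reporter was recorded 30min after ONE-Glo addition.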
# Potency is the fitted concentration of half-maximal effect; tags give direction and shape of the fitted curve or compound fluorescence and quenching.
# Sequence of UniProt P03372 (P03372 whole entry, looked up): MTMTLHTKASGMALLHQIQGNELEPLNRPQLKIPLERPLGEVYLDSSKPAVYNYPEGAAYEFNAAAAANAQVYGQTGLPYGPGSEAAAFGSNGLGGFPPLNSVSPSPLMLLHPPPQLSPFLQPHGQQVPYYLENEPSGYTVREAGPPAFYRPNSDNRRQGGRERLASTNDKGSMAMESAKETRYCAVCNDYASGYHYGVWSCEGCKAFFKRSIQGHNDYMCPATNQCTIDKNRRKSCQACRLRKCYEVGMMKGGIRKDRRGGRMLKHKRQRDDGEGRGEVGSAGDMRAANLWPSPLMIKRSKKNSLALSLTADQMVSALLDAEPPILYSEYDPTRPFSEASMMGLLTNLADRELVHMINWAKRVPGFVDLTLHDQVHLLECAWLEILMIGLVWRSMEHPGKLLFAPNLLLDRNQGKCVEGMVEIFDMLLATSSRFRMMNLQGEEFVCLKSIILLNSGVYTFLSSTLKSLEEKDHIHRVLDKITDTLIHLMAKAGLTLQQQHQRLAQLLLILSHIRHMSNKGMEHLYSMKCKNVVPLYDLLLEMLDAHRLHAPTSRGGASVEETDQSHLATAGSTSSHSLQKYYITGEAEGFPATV
# Sequence of UniProt P10275 (P10275 whole entry, looked up): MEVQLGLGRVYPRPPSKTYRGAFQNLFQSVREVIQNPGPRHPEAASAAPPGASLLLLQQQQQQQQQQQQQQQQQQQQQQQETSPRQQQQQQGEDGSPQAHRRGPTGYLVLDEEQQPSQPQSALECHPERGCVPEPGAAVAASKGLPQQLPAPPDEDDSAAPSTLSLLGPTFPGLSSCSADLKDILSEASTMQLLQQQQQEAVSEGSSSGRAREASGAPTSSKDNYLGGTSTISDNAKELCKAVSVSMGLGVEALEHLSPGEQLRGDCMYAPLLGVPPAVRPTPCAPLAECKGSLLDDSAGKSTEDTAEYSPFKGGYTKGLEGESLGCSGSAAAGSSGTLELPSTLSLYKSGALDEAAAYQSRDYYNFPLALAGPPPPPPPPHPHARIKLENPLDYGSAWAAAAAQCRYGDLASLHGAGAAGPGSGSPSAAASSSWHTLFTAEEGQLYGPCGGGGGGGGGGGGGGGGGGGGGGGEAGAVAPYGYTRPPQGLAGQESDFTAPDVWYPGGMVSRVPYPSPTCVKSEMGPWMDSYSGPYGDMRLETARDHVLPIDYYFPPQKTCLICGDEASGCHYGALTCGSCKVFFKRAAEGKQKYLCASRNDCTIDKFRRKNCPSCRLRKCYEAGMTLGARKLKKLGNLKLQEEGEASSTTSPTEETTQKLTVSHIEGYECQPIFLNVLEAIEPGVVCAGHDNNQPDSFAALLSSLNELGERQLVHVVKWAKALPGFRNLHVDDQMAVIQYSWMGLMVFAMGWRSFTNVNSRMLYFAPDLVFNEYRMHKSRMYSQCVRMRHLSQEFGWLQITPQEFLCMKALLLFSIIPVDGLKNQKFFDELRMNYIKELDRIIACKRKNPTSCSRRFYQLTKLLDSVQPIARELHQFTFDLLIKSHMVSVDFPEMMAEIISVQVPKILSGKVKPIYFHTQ
# Sequence of UniProt Q92731 (Q92731 whole entry, looked up): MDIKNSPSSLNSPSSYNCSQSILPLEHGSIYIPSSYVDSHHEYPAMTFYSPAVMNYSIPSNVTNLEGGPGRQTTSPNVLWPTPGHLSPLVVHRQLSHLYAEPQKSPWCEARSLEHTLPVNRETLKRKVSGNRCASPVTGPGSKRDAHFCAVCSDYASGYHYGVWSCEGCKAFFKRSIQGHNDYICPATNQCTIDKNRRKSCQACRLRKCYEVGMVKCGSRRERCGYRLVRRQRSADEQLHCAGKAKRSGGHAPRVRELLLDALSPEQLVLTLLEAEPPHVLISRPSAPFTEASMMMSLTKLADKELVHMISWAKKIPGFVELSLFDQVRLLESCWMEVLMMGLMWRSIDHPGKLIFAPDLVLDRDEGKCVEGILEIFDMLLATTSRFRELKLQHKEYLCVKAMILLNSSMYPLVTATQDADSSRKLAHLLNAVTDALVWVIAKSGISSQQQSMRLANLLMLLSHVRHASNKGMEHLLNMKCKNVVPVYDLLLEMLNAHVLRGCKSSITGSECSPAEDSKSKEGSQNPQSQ
structure (smiles),measurement,setting,value
CN1CCN2c3ccccc3Cc3ccccc3C2C1 (stereo unspecified),Potency,[1],"inconclusive: 26.6 µM [inhibitor, partial curve]"
same,Potency,[2],"inconclusive: 33.5 µM [inhibitor, single point]"
same,Potency,[3],"inconclusive: 29.8 µM [inhibitor, single point]"
same,Potency,[4],"inconclusive: 15 µM [cytotoxic, partial curve]"
same,Potency,[5],"inconclusive: 29.8 µM [cytotoxic, partial curve, poor fit]"
C=CC(=O)OCCC#N,Potency,[6],inactive
same,Potency,[7],"inconclusive: 69 µM [activator, single point]"
same,Potency,[3],inactive
same,Potency,[4],"inconclusive: 77.4 µM [cytotoxic, single point]"
same,Potency,[8],"inconclusive: 69 µM [rising, partial curve, poor fit]"
CC(COc1ccccc1)N(CCCl)Cc1ccccc1 (stereo unspecified),Potency,[6],inconclusive: 68.6 µM [cytotoxic]
same,Potency,[2],"inconclusive: 69.3 µM [inhibitor, single point]"
same,Potency,[9],"inconclusive: 33.5 µM [cytotoxic, partial curve, poor fit]"
same,Potency,[4],"inconclusive: 27.6 µM [cytotoxic, partial curve] and inconclusive: 42.2 µM [cytotoxic, partial curve, poor fit]"
same,Potency,[5],"inconclusive: 27.6 µM [cytotoxic, partial curve, poor fit]"
C[Si]1(C)O[Si](C)(C)O[Si](C)(C)O1,Potency,[1],inactive
CCOC(=O)/C=C(C)/C=C/C=C(C)/C=C/c1c(C)cc(OC)c(C)c1C,Potency,[10],"inconclusive: 5.31 µM [inhibitor, full curve]"
CCCCCCOc1ccc(O)cc1,Potency,[1],"inconclusive: 77 µM [inhibitor, single point]"
same,Potency,[11],inconclusive: 30.6 µM [inhibitor]
same,Potency,[12],"inconclusive: 5.45 µM [cytotoxic, full curve, poor fit]"
same,Potency,[3],inconclusive: 24.3 µM
same,Potency,[4],"inconclusive: 7.7 µM [cytotoxic, full curve]"
same,Potency,[5],"inconclusive: 24.3 µM [cytotoxic, single point]"
C=C1C(=C/C=C2\CCC[C@]3(C)[C@@H]([C@H](C)/C=C/[C@@H](O)C4CC4)CC[C@@H]23)C[C@@H](O)C[C@@H]1O,Potency,[1],"inconclusive: 33.5 µM [inhibitor, single point]"
same,Potency,[10],inconclusive: 29.8 µM [inhibitor]
same,Potency,[13],"inconclusive: 15.8 µM [activator, partial curve, poor fit]"
same,Potency,[2],active: 0.0007 µM
same,Potency,[9],"inconclusive: 33.5 µM [cytotoxic, partial curve, poor fit]"
O=C(CC(=O)C(F)(F)F)c1ccccc1,Potency,[6],inactive
same,"activity, negative = inhibition",[3],inconclusive: -27.6%
same,Potency,[4],"inconclusive: 27.7 µM [cytotoxic, single point]"
same,Potency,[14],active: 9.83 µM
CCN(CC)c1cccc(O)c1,Potency,[1],"inconclusive: 22.1 µM [inhibitor, full curve]"
same,Potency,[7],"inconclusive: 55.6 µM [fluorescent, single point]"
C(=C(c1ccccc1)c1ccccc1)c1ccccc1,Potency,[6],inactive
same,Potency,[2],"inconclusive: 68.6 µM [inhibitor, single point]"
same,Potency,[3],active: 1.54 µM
same,Potency,[4],"inconclusive: 27.3 µM [rising, partial curve]"
Clc1ccc2cc3ccccc3cc2c1,Potency,[1],"inconclusive: 3.85 µM [inhibitor, full curve]"
same,Potency,[7],"inconclusive: 27.3 µM [activator, single point]"
same,Potency,[3],"inconclusive: 27.3 µM [activator, single point]"
CSc1ccc(/C=C2/C(C)=C(CC(=O)O)c3cc(F)ccc32)cc1,Potency,[1],"inconclusive: 2.98 µM [inhibitor, single point]"
same,Potency,[7],"inconclusive: 5.96 µM [rising, full curve, poor fit]"
same,"activity, negative = inhibition",[3],inconclusive: -64.6% [at 42.5 µM]
same,Potency,[5],inconclusive: 9.44 µM [cytotoxic]
O=C1Nc2cc(Cl)ccc2Oc2ccccc21,Potency,[1],active: 4.22 µM
same,Potency,[10],"inconclusive: 4.22 µM [inhibitor, partial curve]"
same,"activity, negative = inhibition",[3],inconclusive: 26.5% [at 42.5 µM]
Cc1ncc([N+](=O)[O-])n1CC(O)CCl (stereo unspecified),Potency,[1],inactive
same,Potency,[2],"inconclusive: 1.19 µM [inhibitor, single point]"
CCO[Si](CCCSSSSCCC[Si](OCC)(OCC)OCC)(OCC)OCC,Potency,[6],"inconclusive: 68.7 µM [cytotoxic, single point]"
same,Potency,[7],"inconclusive: 27.3 µM [rising, partial curve]"
same,"activity, negative = inhibition",[3],inconclusive: -40.7%
same,Potency,[9],"inconclusive: 68.7 µM [cytotoxic, single point]"
same,Potency,[4],active: 61.2 µM
OCCCCCCO,Potency,[6],inactive
same,Potency,[5],"inconclusive: 61.9 µM [cytotoxic, single point]"
CCc1cccc2c(CCO)c[nH]c12,Potency,[1],"inconclusive: 18.8 µM [inhibitor, partial curve]"
same,Potency,[7],inactive
Cc1ccc(C(=O)c2ccccc2)cc1,Potency,[1],"inconclusive: 77 µM [inhibitor, single point]"
same,Potency,[11],"inconclusive: 30.6 µM [inhibitor, partial curve]"
